We go through 153 variants from a collection of fitness landscapes (doi:10.1016/j.celrep.2020.107928).

Over roughly 81,000 sequences, “one-hybrid fitness for binding NBS DNA” has its median near -0.1; the highest 2% begin near 0.36. The list shows a part of the results.

The chains are these.
B1: Caulobacter ParB omega fusion; a variant is named by its letters at X, in order, B8GW30 (parent)
chain: MESVVVGEPGMSEGRRGLGRGLSALLGEVDAAPAQAPGEQLGGSREAPIEILQRNPDQPRRTFREEDLEDLSNSIREKGVLQPILVRPSPDTAGEYQIVAGERAWRAAQRAGLKTVPIMVRELDDLAVLEIGIIENVQRADLNVLEEALSYKVLMEKFERTQENIAQTIGKSXSHVANXMRLLXLPDEVQSYLVSGELTAXHARAIAAAADPVALAKQIIEGGLSVRETEALARKAPNLSAGKSKGGRPPRVKDTDTQALESDLSSVLGLDVSIDHRGSTGTLTITYATLEQLDDLCNRLTRGI

Variants of B1 are the subject of the test. The test can be described thus: one-hybrid fitness for binding NBS DNA (the Noc-binding site; scaled: cognate 1, non-cognate 0); higher = stronger binding. To be noted: with NBS DNA site. Put shortly:
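Caulobacter ParB libraries with four specificity codons randomised were screened by bacterial one-hybrid selection in the E. coli USO strain, using a HIS3 reporter whose site lies 19 bp from the promoter. Selection ran for 48 hours at 37°C on M9 lacking histidine, with 0.1 mM IPTG and 5 mM 3-AT. Plasmids were Illumina-sequenced before and after selection, three replicate libraries were pooled, and variants with under 10 reads were dropped. Fitness is the log change in each variant's read ratio to wild type, rescaled against the cognate and non-cognate sites.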
RKGF: the “one-hybrid fitness for binding NBS DNA” value was at most 0.2.
In the case of TGQL it was at most 0.2; in that of PTYI, at most 0.2; in that of PNYG, at most 0.2.
To WRPY belongs at most 0.2; to ILAH, at most 0.2; to INAC, at most 0.2.
On to CAHR, for which the “one-hybrid fitness for binding NBS DNA” value is at most 0.2.
Take PGWW: the “one-hybrid fitness for binding NBS DNA” value was at most 0.2.
To FKLE belongs at most 0.2.
To EIIT belongs at most 0.2.
To VRHR belongs 0.327.
Turning to MFPS, the “one-hybrid fitness for binding NBS DNA” value was at most 0.2.
In the case of VISF it was at most 0.2; in that of FVLH, at most 0.2.
To VRQL belongs at most 0.2.
To PDAR belongs at most 0.2.
As for DFLF, the “one-hybrid fitness for binding NBS DNA” value is at most 0.2.
As for YWAY, the “one-hybrid fitness for binding NBS DNA” value was at most 0.2.
For the variant RITK, the “one-hybrid fitness for binding NBS DNA” value was at most 0.2.
Turning to AMQR, the “one-hybrid fitness for binding NBS DNA” value was at most 0.2.
In the case of WRKI it was at most 0.2; in that of GPRM, at most 0.2.
As to IVVY, the “one-hybrid fitness for binding NBS DNA” value is at most 0.2.
To FQCC belongs at most 0.2; to EGLH, at most 0.2.
In the case of LSGL it was at most 0.2; in that of CPKT, at most 0.2; in that of RGPS, 0.258.
In the case of RIQK it was at most 0.2; in that of YNRS, at most 0.2.
RCEH: the “one-hybrid fitness for binding NBS DNA” value was at most 0.2.
Consider LVYT, for which the “one-hybrid fitness for binding NBS DNA” value is at most 0.2.
RSNW: the “one-hybrid fitness for binding NBS DNA” value is at most 0.2.
In the case of FNTS it was at most 0.2; in that of HSLT, at most 0.2.
On to RKPF, for which the “one-hybrid fitness for binding NBS DNA” value is at most 0.2.
As to WNTS, the “one-hybrid fitness for binding NBS DNA” value was at most 0.2.
To RQWG belongs at most 0.2; to DLHD, at most 0.2; to PHRF, at most 0.2.
To QHSM belongs at most 0.2; to QWDN, at most 0.2; to ARIF, at most 0.2.
As to TDSG, the “one-hybrid fitness for binding NBS DNA” value was at most 0.2.
To DNKC belongs at most 0.2; to ARFF, at most 0.2; to DWNL, at most 0.2.
To VTFC belongs at most 0.2.
As to LSST, the “one-hybrid fitness for binding NBS DNA” value is at most 0.2.
With LATS, the “one-hybrid fitness for binding NBS DNA” value is at most 0.2.
To GCTF belongs at most 0.2; to NKST, at most 0.2; to TIHW, at most 0.2.
In the case of GLHY it was at most 0.2.
In the case of KTTR it was 0.202; in that of YNTS, at most 0.2; in that of ERYF, at most 0.2.
Consider RFYF, for which the “one-hybrid fitness for binding NBS DNA” value is at most 0.2.
To CAEL belongs at most 0.2; to WRTF, at most 0.2.
To VIAK belongs at most 0.2; to PNMV, at most 0.2.
In the case of ALHT it was at most 0.2.
In the case of ANWC, the “one-hybrid fitness for binding NBS DNA” value is at most 0.2.
To FARA belongs at most 0.2; to REHK, at most 0.2.
To KTET belongs at most 0.2; to CYRR, 0.223; to DLMG, at most 0.2.
To APYS belongs at most 0.2; to KRNI, at most 0.2.
For TRCL, the “one-hybrid fitness for binding NBS DNA” value is at most 0.2.
To SYVM belongs at most 0.2; to HRWT, at most 0.2; to CCPT, at most 0.2.
To RWGR belongs at most 0.2.
To QSGV belongs at most 0.2; to FTVR, at most 0.2.
Take GNTM: the “one-hybrid fitness for binding NBS DNA” value was at most 0.2.
To RVAI belongs at most 0.2; to WFQS, at most 0.2.
To RYIA belongs at most 0.2; to RAPV, at most 0.2; to SQSF, at most 0.2.
For the variant DSRH, the “one-hybrid fitness for binding NBS DNA” value was at most 0.2.
As to REFR, the “one-hybrid fitness for binding NBS DNA” value is at most 0.2.
To QYTW belongs at most 0.2; to ESPR, at most 0.2.
In the case of IRYS it was at most 0.2; in that of YNVW, at most 0.2.
To RGSC belongs at most 0.2.
Turning to SNDF, the “one-hybrid fitness for binding NBS DNA” value was at most 0.2.
In the case of DTMS it was at most 0.2; in that of SFMY, at most 0.2; in that of VNQD, at most 0.2.
With YHNG, the “one-hybrid fitness for binding NBS DNA” value was at most 0.2.
In the case of SLNI it was at most 0.2; in that of QAHY, at most 0.2; in that of VIEG, at most 0.2.
To GHHR belongs at most 0.2; to DKIG, at most 0.2; to THDR, at most 0.2.
In the case of RQEE it was at most 0.2; in that of RIKW, at most 0.2.
As for AGRS, the “one-hybrid fitness for binding NBS DNA” value was at most 0.2.
In the case of AMKT it was at most 0.2.
In the case of CHTS it was at most 0.2.
In the case of INSG it was at most 0.2; in that of RKFH, 0.212; in that of SVRA, at most 0.2.
With VRRN, the “one-hybrid fitness for binding NBS DNA” value is at most 0.2.
In the case of SAGM it was at most 0.2; in that of ACGM, at most 0.2.
For the variant TELL, the “one-hybrid fitness for binding NBS DNA” value was at most 0.2.
In the case of VQAR it was at most 0.2; in that of VLID, at most 0.2.
In the case of AITS it was at most 0.2.
To RRDF belongs at most 0.2.
On to PYPV, for which the “one-hybrid fitness for binding NBS DNA” value is at most 0.2.
To VARS belongs at most 0.2; to YVRC, at most 0.2; to YWAR, at most 0.2.
For SNRI, the “one-hybrid fitness for binding NBS DNA” value was at most 0.2.
Turning to EGRG, the “one-hybrid fitness for binding NBS DNA” value is at most 0.2.
In the case of HNRC it was at most 0.2.
To AILS belongs at most 0.2; to RVNT, 0.576; to APTC, at most 0.2.
In the case of GIQR it was at most 0.2; in that of DRMC, at most 0.2.
Consider DFTA, for which the “one-hybrid fitness for binding NBS DNA” value is at most 0.2.
To YDHG belongs at most 0.2.
To LLVV belongs at most 0.2; to EPPI, at most 0.2; to MPGS, at most 0.2.
In the case of KCRG it was at most 0.2.
On to VYSC, for which the “one-hybrid fitness for binding NBS DNA” value was at most 0.2.
To HNAD belongs at most 0.2.
Regarding NLSV, the “one-hybrid fitness for binding NBS DNA” value was at most 0.2.
On to LVIR, for which the “one-hybrid fitness for binding NBS DNA” value was at most 0.2.
Take TRTW: the “one-hybrid fitness for binding NBS DNA” value is at most 0.2.
To QLDN belongs at most 0.2.
In the case of FNGG it was at most 0.2; in that of ACCC, at most 0.2.
To AVFG belongs at most 0.2; to NRRY, at most 0.2; to QRKQ, 0.492.
As for GTLP, the “one-hybrid fitness for binding NBS DNA” value was at most 0.2.
To DRIR belongs at most 0.2; to LKSR, at most 0.2; to DYSS, at most 0.2.
To SINC belongs at most 0.2.
